# Tested on: Gram-positive Staphylococcus aureus (FDA209P, an MSSA strain; ATCC 6538P)
# Experiment: Antibacterial testing of coated substrates, CFU plate counting
# Conditions: relative to untreated substrate; for Bacteria Loss/Log10 Reduction S. aureus (Gram-positive): coated PET film, 4 h at 30 °C, mean ± standard deviation; for Log10 Reduction S. aureus: plasma poly(4-vinylaniline) series, title: polypropylene film, text: PET substrates, average ± standard deviation
SMILES,Bacteria Loss/Log10 Reduction S. aureus (Gram-positive),Bacteria Loss/Log10 Reduction S. aureus (Gram-positive) (listed as cinnamaldehyde),Log10 Reduction S. aureus (listed as Cinnamaldehyde-only),Log10 Reduction S. aureus (listed as cinnamaldehyde-only),Bacteria Loss/Log10 Reduction S. aureus (Gram-positive) (listed as Tannic acid-only)
"O=C/C=C/c1ccccc1 [Cinnamaldehyde, trans-cinnamaldehyde]",0.29 ± 0.07 Log10 Reduction,very small antibacterial effect,0.29 ± 0.07 Log10 Reduction,very small effect,–
"O=C(OC[C@H]1O[C@@H](OC(=O)c2cc(O)c(O)c(OC(=O)c3cc(O)c(O)c(O)c3)c2)[C@H](OC(=O)c2cc(O)c(O)c(OC(=O)c3cc(O)c(O)c(O)c3)c2)[C@@H](OC(=O)c2cc(O)c(O)c(OC(=O)c3cc(O)c(O)c(O)c3)c2)[C@@H]1OC(=O)c1cc(O)c(O)c(OC(=O)c2cc(O)c(O)c(O)c2)c1)c1cc(O)c(O)c(OC(=O)c2cc(O)c(O)c(O)c2)c1 [Tannic Acid, tannic acid]",0.13 ± 0.07 Log10 Reduction,–,–,–,only a modest reduction in viability

# Reference: patent US20230279246A1, “MOLECULE-CONTAINING SURFACES AND METHODS OF PREPARATION THEREOF” (University of Durham, priority 2020, published 2023)
